# This is one part of the list.
# System: PF3D7_0420300 AP2 domain 1 (GST-tagged)
# Experiment: gcPBM binding intensity (ln(normalized median fluorescence intensity)); higher = stronger DNA binding
# In short: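 Each value is the highest Masliner-normalised natural-log median intensity across replicate spots of either orientation of a probe. The probes were primer-extended double-stranded 36-bp intergenic genomic sequences on an Agilent 4 × 180k array, alongside negative controls, exposed for 1 h to GST-tagged P. falciparum DNA-binding domains expressed in E. coli. Bound protein was picked up with Alexa488 anti-GST antibody and scanned at 488 nm.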
row,Sequence,gcPBM binding intensity (ln)
1,TTCATTTTATTTTAAGTGCATATTTTTATTTTTTTG,9.36
2,TTTTTAATTCAAAAAACTGTATGTTATATGTCAAAT [CACACA_negctrl_site72],8.94
3,TATATAAATAAAAAAAGTACATTACTTTTTAATTTA [XGTACX_site285],8.94
4,ATCATACCTTTTAATGTACACACATTTCTTTTTTGT [CACACA_site8198],9.82
5,TATATATATAAATACACACACACATATATATATATA [CACACA_site4585],9.9
6,AATATACAAATTACAAGTACAAATCAATATTATATG [XGTACX_site7521],9.56
7,AAAAAAAAAAAAAAAACACACAAACAAATGAATAAA [CACACA_site5769],9.71
8,TCATTTTACAGATGTGCATGTGAATCAATCTATTTA [TGCATGCA_site787],8.98
9,GTATATAATTTATATTGTACGCATATTATTATCATT [XGTACX_site7277],9.34
10,TGTAGTTTTTATTTATGTACGCATAACATAATTTAA [XGTACX_site104],9.25
11,AGAATTTAGAAACAATGTTGTATATGTAATACCTTT [XGTACX_negctrl_site149],9.21
12,GATATTATGTGTTTGGTATTTCGATCTTGTCAGGAC [CACACA_negctrl_site426],9.3
13,TATATATATAAAAAAAGTACGTATTTAATAAAAATA [XGTACX_site4992],9.37
14,ATTTCTATATATTGTGCATGCCATTACACCAAATAT [TGCATGCA_site813],9.34
15,AATGTACAAATACGTACACACATATATATATATATA [CACACA_site1542],9.59
16,GTATAAAATATTTTATGTACATAATATATATATATA [XGTACX_site2489],9.07
17,AAATAAAGGAAATGTATATCAACATTAAAATAAGGC [CACACA_negctrl_site441],9.7
18,TATATGTATGTTTGTGTGCACACATAAATATTATAT,9.94
19,CATTTAAAATTTGTTTGTACATATATATATATATAT [XGTACX_site6729],9.24
20,TTTTACAATAACAATACACACTATAATATGTAAATA [CACACA_site6772],9.46
21,ATATATATATATATATGTACTTATGTCATCATTAAA [XGTACX_site5316],9.07
22,ACGAAGTATATGAATACACACATATTTTTAATGAAA [CACACA_site4070],9.34

row,Sequence,gcPBM binding intensity (ln)
1,AGTAAATTTGATGGTCGTACAAAAAAAAAGTAGGAC [XGTACX_site2600],9.58
2,ATATACATAATTTGGAGTACAATATCATATAAATAT [XGTACX_site6334],9.25
3,TTTTTAATCAGAAATATTTATTAAAGAATTTTATAG [GTGCAC_negctrl_site725],8.66
4,GGATAATATATTAGAACACACATATATATGTAAAAA [CACACA_site185],9.42
5,ATGGAATAATCACGTACACACAAGAAAAAAAAAAAT [CACACA_site527],10
6,ATTACAAATACAAACACACAAATGTTTTTCATTCAA [CACACA_site7639],9.35
7,TTTTATTTGACAAGCACACACTTAAATATATATATA [CACACA_site5792],9.27
8,AAACAAAAAATAAAATGTACATTTATTACGATAAGT [XGTACX_site2392],9.58
9,TAGTATAATATGAACACACACACACCGACAAAAAAA [CACACA_site5151],9.99
10,AATTGAAAAAGAAATTGTACATTTTATTTTTATTAT [XGTACX_site1973],9.07
11,ATATAATTTATATATTCACACAAGGAATACTTTTAT [CACACA_site5506],9.18
12,ACTATACAGTTATACACACACATATATCTATAATAT [CACACA_site6283],9.8
13,AATAAAATATATTCCTGTACATATGATTCTTTTTTT [XGTACX_site7980],9.3
14,TTTACATATTTATATACACACTTTTGCGTGCGTGGT [CACACA_site6647],9.21
15,ATACATATATATATATGTACATATGTATTTTTTATT [XGTACX_site105],9.38
16,TCAATAAATATACATACATGCATACATACATACATA [TGCATGCA_site197],9.23
17,TGTGTTAATATGAATTTAAACATAAATAAATAAATA [CACACA_negctrl_site1589],8.95
18,GAACATTTATTGTGTGTGCACAATTCTTTTTTAACC [GTGCAC_site9697],9.49
19,AATTTTCAATAGTATACACACAATTATATATATATA [CACACA_site1116],9.42
20,TCTTTTCTCGGAAGGGTGCAAGGAATTAATGAAATA [GTGCAC_site9706],8.99
21,TATATATGTAGACGTTGTACTTTTTTGTAAGTTTAA [XGTACX_site5638],9.13
22,TTTAAATTTTTATATTGTACTTTATTTATTTATTTA [XGTACX_site869],9.26

row,Sequence,gcPBM binding intensity (ln)
1,TGTGTCAAGTTTAATAAACGCATATAATATATATGA [CACACA_negctrl_site607],8.93
2,CATGACATATCCTGTAGTACAACGTATATATAAGAT [XGTACX_site2577],9.45
3,AAAATAAAATCATAAAGTACAAAAAGAAAATAAAAA [XGTACX_site7376],9.53
4,TTTAATTTTTATATAACACACATATTGTAATTATGT [CACACA_site4566],9.38
5,ATGTTTAATTAAATATGTACTTATTATATTATATGT [XGTACX_site8137],9.46
6,AGGAATCTACATATATGTACATATATTGATATATTT [XGTACX_site137],9.37
7,ACTAAAAGGCTTAAATGTACATATTATATATATATA [XGTACX_site5897],9.21
8,ATAATTTCTATTTCACAAAAAAAAAAAAAAAAAAAA [CACACA_negctrl_site1012],8.37
9,ACATAACTTATATATACACACAATACAAATATATAT [CACACA_site2774],9.81
10,CTTTTTTTTTTGGGGGTGCATGCAAGACATATATTT [GTGCAC_site9660],9.47
11,GATATGATTATGTGATGGTGTTTTTGATAGATATTT [CACACA_negctrl_site1445],9.57
12,GAATAATTAAAAGGTAGTACAAAGGTTATCAAAAGG [XGTACX_site8496],9.42
13,TTGTTCTTTTGAAAGGTGCAAAAGAAAAATAATTAA,8.94
14,AGAAAACCGAAAGAGACACACAACATGTCGATTTAG [CACACA_site3764],9.62
15,ATAAAGATAATATATGCACACATATAAATATATAAA [CACACA_site9153],9.37
16,ATAAAAACTACATTCACACAAAAAAAAATCTACAAA [CACACA_site6109],9.38
17,AATAATATTAATAAAAGTACATGTGTAATATATATA [XGTACX_site5922],9.51
18,ATATATATATGTTAGGTGCATATATATTTTGTGGAT [GTGCAC_site9964],9.34
19,ATATATATAATATATTGTACATATAATATATATATA [XGTACX_site4792],9.09
20,ACATCTAGGCTTATTTTATGATACATGTGAATATAT [TGCATGCA_negctrl_site325],9.33
21,GTTTTTGAGTAGTACACACACAATAAGGATGGATTC [CACACA_site3192],9.75
22,TGAAAAGATAAAAAATGTACATATATATTATATATA [XGTACX_site5678],9.24

row,Sequence,gcPBM binding intensity (ln)
1,TTTCTAAATAATATACACAAAAAAATAAAACACTAA [TGCATGCA_negctrl_site43],9.45
2,ATACACAATTATTTTCCTATTATGCAAGCAAATTTA [CACACA_negctrl_site1176],9.13
3,GTTTAACTGTTTTATACACACAATGTAGACAATAAA [CACACA_site8967],9.39
4,GTACAAAAAAAGTGTACACAAAGTAAGACTTTAATT [CACACA_site5068],9.28
5,CACTGTAAATAGAAAGTGCAAAAATTGTAAATAAAA [GTGCAC_site9980],9.26
6,TAAATACATTGACACACACACAAATATGTACATACA [CACACA_site7371],10
7,ACTTGATTACACAACCACAAGTAATTGAAATTATTT [XGTACX_negctrl_site297],9.33
8,AGTTTTATGTAGTGTTGTACTTTATACAAATATATA [XGTACX_site990],9.34
9,AGTAATAATATAATTTGTACATATATATATTATAAA [XGTACX_site7138],9.06
10,TACAAAAATGTAGTCACACATATGTATACTTTTATG [CACACA_site5607],9.21
11,TTTCTAATTTATATCACACACATATATAAATAGTAA [CACACA_site6156],9.43
12,ATATATATAATTTAAAGTACATATTTAAGAATGAAA [XGTACX_site2238],9.16
13,AATGTTTAATATAACGCATGCCTTAATATAGAATGC [TGCATGCA_site463],9.13
14,TATCATGTGCGTGCGTGTACTTAACACACATAATAT [XGTACX_site2404],9.35
15,TATTTTTATAAAAACTGTACATAATAAATAAAAATA [XGTACX_site4743],9.19
16,AATCAAAGTAATTTAACACACAATTTTAATACTGTT [CACACA_site7169],9.41
17,TTATATGTTTCTTCACGTACGTATAAAAATGAACTT [XGTACX_site1764],9.13
18,TTGTTCATTATGCACAGTACATAAAAAGTAAAAAAA [XGTACX_site2403],9.09
19,TCATTTATTTTAAGGTGTACCGTTTAAAATCACAAA [XGTACX_site3243],8.88
20,ATATTGACAAATATTACACACATATATATATATATA [CACACA_site4079],9.43
21,TTTTTTTGCGCGGGAAGAATAAAATTTATAGAATAT [TGCATGCA_negctrl_site306],9.01
22,AATTTACACGTACGTGTACACACAAAAATATGTTTT [CACACA_site8242],9.56
